ChEMBL document CHEMBL1156829
“And” between values parts separate entries of the source, which are not always exact repeats. Identical values can stand only once. The full ranking holds about 5,400 compounds; the median of “IFI” is about 2, and the highest 2% start at about 22. The list shows a part of the results.

assay: NOVARTIS: Inhibition Frequency Index (IFI) - the number of HTS assays where a compound showed > 50% inhibition/induction, expressed as a percentage of the number of assays in which the compound was tested.; assay type: functional

Row | SMILES | IFI
1 | COc1ccc(C2CC(=O)C3=C(C2)NC(C)=C(C(=O)OC(C)C)C3c2cccc(Cl)c2Cl)cc1OC (configuration not stated) | 4.76%
2 | COc1cccc(-c2cc(C(=O)Nc3cc(Cl)ccc3O)on2)c1 | 0%
3 | Cc1cc2nc(NC(=N)N)nc(C)c2cc1C | 0%
4 | Cc1c(C=O)c2ccccc2n1CC(=O)Nc1cccc(I)c1 | 7.69%
5 | COc1ccc(N2CCN(C(=O)C3=C(C)C(=O)OC34CCCCC4)CC2)cc1 | 0%
6 | CCN(CC)S(=O)(=O)c1ccc(C(=O)NCc2nnc(SCC(=O)N3CCc4ccccc43)n2-c2ccccc2OC)cc1 | 3.57%
7 | Cc1cc(Nc2ccc(C)c(F)c2)n2nc(C)nc2n1 | 2%
8 | COc1cccc(CCOc2ccc3c(c2)C(=O)N(C(C(=O)NC(C)(C)C)c2cccc(OC)c2)C(CO)C(=O)N3)c1 (configuration not stated) | 2.3%
9 | C=C(C)[C@@]12O[C@@H]1[C@@]1(C)C(=CC2=O)CC[C@@H](O)[C@@H]1C | 5.17%
10 | CCOC(=O)C1=C(N)n2c(sc(=Cc3cccnc3)c2=O)=C(C(=O)OC)C1c1cccnc1 (configuration not stated) | 0%
11 | FC(F)(F)c1cccc(-c2nc3c(s2)CN(C2CCCC2)CC3)c1 | 2.78%
12 | Fc1ccc(Nc2nc(NCc3ccco3)c3ccccc3n2)cc1 | 9.68%
13 | COc1cccc(-c2ccc(O)c(CNC3CCN(Cc4ccccc4)CC3)c2)n1 | 4.31%
14 | CCCCc1ccc(C(=O)NCCCN(C(=O)Nc2ccc([N+](=O)[O-])cc2)c2ccccc2)cc1 | 2.08%
15 | CCOc1ccc(Nc2cc(C)nc(Nc3ccc(OCC)cc3)n2)cc1 | 4.62%
16 | O=C(Nc1cccc(N2CCC(NCC3CCCCC3)CC2)c1)C1CC1 | 0%
17 | COc1ccc(C=NNc2nc3cc(Cl)ccc3[nH]2)cc1OC | 0%
18 | O=C(Nc1ccc(-c2nc3cc(NC(=O)c4cccc([N+](=O)[O-])c4)ccc3[nH]2)cc1)c1cccc([N+](=O)[O-])c1 | 16.9% and 0%
19 | CC(=O)OC1CCC2(C)C(CCC3C2CCC2(C)C3CC(O)C2(O)C(C)=O)C1 (configuration not stated) | 0%
20 | COc1ccc(N(CCCNC(=O)CCl)C(=O)Nc2cccc(Cl)c2)cc1 | 0.926%
21 | CCn1c(SCCCCNC(=O)c2cc([N+](=O)[O-])cc([N+](=O)[O-])c2)nc(-c2ccc(C)cc2)c1-c1ccc(C)cc1 | 2.86%
22 | Cc1ccc(-c2nc3cc(NC(=O)c4ccc([N+](=O)[O-])o4)ccc3o2)cc1Br | 18.2%
23 | O=C(NCCc1ccc(-c2ccccc2)cc1)c1ccc(NS(=O)(=O)C(F)(F)F)cc1 | 2.78%
24 | COc1ccc(C=NNc2cc(C)nc3ccccc23)cc1 | 15.4%
25 | CCN(CC)CCCN(Cc1cc2ccc(OC)cc2[nH]c1=O)C(=S)NCc1ccccc1 | 3.42%

Row | SMILES | IFI
26 | Oc1ccc(-c2ccccc2)cc1CNC1CCCCC1 | 1.68%
27 | CC(C)NC(=O)c1cc(NC(=O)c2cccs2)ccc1N1CCc2ccccc2C1 | 3.12%
28 | CC1=C(C=CC(C)C=NNC(=O)c2ccncc2)C(C)(C)CCC1 (configuration not stated) | 0%
29 | CN(C)CC(C)(C)CNCc1cc(-c2ccccc2)ccc1O | 1.74%
30 | CCN1/C(=C\c2sc3ccc(O)cc3[n+]2CC)C=Cc2ccccc21 | 23.1%
31 | CC(=O)O[C@@H]1C(=O)[C@@]2(C)[C@H]([C@H](OC(=O)c3ccccc3)[C@@]3(O)C[C@H](OC(=O)[C@H](O)[C@@H](NC(=O)c4ccccc4)c4ccccc4)C(C)=C1C3(C)C)[C@]1(OC(C)=O)CO[C@@H]1C[C@@H]2O | 11.8%
32 | CCCCOc1ccc(C(=O)NCCOc2cccc(OC)c2)cc1 | 1.51%
33 | CC(C)CC(=O)NCCCCNc1ccnc2cc(Cl)ccc12 | 1.85%
34 | CCOC(=O)C1=C(C)NC2=C(C(=O)CC(C)(C)C2)C1c1ccc(Cl)cc1Cl (configuration not stated) | 5.81%
35 | Cc1ccc(-n2c(=S)sc3c(=O)n(-c4ccccc4)c(SCC(=O)c4ccccc4)nc32)cc1C | 0%
36 | Oc1ccc(-c2cccnc2)cc1CNC1C2CC3CC(C2)CC1C3 (configuration not stated) | 0%
37 | CCOC(=O)C1=C(c2ccccc2)N=c2sc(=Cc3cccnc3)c(=O)n2C1c1c(OC)ccc2ccccc12 (configuration not stated) | 0%
38 | O=C(COC(c1ccccc1)c1c(Cl)cncc1Cl)N1CCNCC1 (configuration not stated) | 3.96%
39 | Cc1ccc(-c2nc3cc(NC(=O)c4ccc(Cl)cc4Cl)ccc3o2)cc1 | 0%
40 | CC1CCCCN1CCCNc1ncc(C(=O)NCCc2ccccc2)c(Nc2ccccc2)n1 (configuration not stated) | 2.88%
41 | CCCCNCCN1CCN(c2ccc3ccccc3c2)C[C@@H]1c1ccccc1 | 7.32%
42 | CCNC(=O)[C@@H]1C[C@@H](NC2C3CC4CC(C3)CC2C4)CN1Cc1cccc(OC)c1OC (some centres not stated) | 0.98%
43 | CCCS(=O)(=O)N1CCC(CO)(Cc2ccccc2C(F)(F)F)CC1 | 0%
44 | CCN(CC)CCCC(C)Nc1cc(/C=C/c2ccc([N+](=O)[O-])cc2)nc2cc(OC)ccc12 (configuration not stated) | 3.61%
45 | CCCCNC(=O)C(c1cccc(OC)c1)N1C(=O)c2cc(OCCc3cccc(OC)c3)ccc2NC(=O)C1CO (configuration not stated) | 1.16%
46 | Oc1ccc(-c2ccc(F)cc2)cc1CNCCN1CCOCC1 | 0.855%
47 | CCOc1ccc(Nc2cc(C)nc3ccc(OCC)cc23)cc1 | 3.45%
48 | OCCNc1nc(Nc2ccc(F)cc2)nc2ccccc12 | 2.94%
49 | COc1ccc(CNC(=O)CCc2cn(Cc3cc(C)ccc3C)c3ccccc23)cc1OC | 0%
50 | COc1ccc2c(Cl)c(C(=O)Nc3cc(C)on3)sc2c1Cl | 0%

Row | SMILES | IFI
51 | Cc1cc(NC(=O)/C=C/c2ccccc2Cl)ccc1Br | 0%
52 | CCc1ccc2[nH]c(=O)c(CN(CCO)C(=S)Nc3ccccc3CC)cc2c1 | 6.48%
53 | COc1ccc(NC(=O)N2CCN(C(=O)c3nc(-c4ccccc4)nc(C)c3C(=O)OC(C)C)CC2C)cc1 (configuration not stated) | 1.87%
54 | OC1=C2C(=Nc3ccccc3SC2c2ccccc2)c2ccccc21 (configuration not stated) | 2.25%
55 | CC1(C)N=C(N)N=C(N)N1c1ccc(Cl)cc1 | 9.63%
56 | COc1ccc(-c2cc(-c3ccc(C)cc3)[nH]n2)c(O)c1 | 10.6%
57 | C=CCN1/C(=C/C=C/c2sc3ccccc3[n+]2CC=C)Sc2ccccc21 | 7.69%
58 | CN1CCc2c(sc3nc(SCc4ccccc4)n(-c4ccccc4)c(=O)c23)C1 | 10.2%
59 | CCN(CC)c1cc2oc3cc(=[N+](CC)CC)ccc-3nc2c2ccccc12 | 14.6%
60 | CC1CCN(Cc2c(O)ccc3cc(-c4nc5ccccc5s4)c(=O)oc23)CC1 | 6.99%
61 | CCOC(=O)c1c(CNCCN(CC)CC)n(C)c2cc(Br)c(O)cc12 | 0%
62 | c1ccc(CCNc2cccc3ccccc23)cc1 | 1.79%
63 | Cc1cc(Nc2cccc3ccccc23)nc(Nc2cccc3ccccc23)n1 | 0%
64 | Cc1ccc2[nH]c3c(NCCc4ccccc4F)ncnc3c2c1 | 14.6%
65 | Cc1ccc(N=Nc2nc3ccccc3n2C)c(C)c1 | 19.4%
66 | O=C1NC(=S)N/C1=C/c1cccc(Oc2ccccc2)c1 | 0%
67 | COc1ccc(-n2nc(C(=O)NCC(=O)NCCCN3CC(C)CC(C)C3)c3ccccc3c2=O)cc1Cl (configuration not stated) | 0%
68 | OC(COc1ccc(OCC(O)CN2CCN(C3c4ccccc4-c4ccccc43)CC2)cc1)CN1CCN(C2c3ccccc3-c3ccccc32)CC1 (configuration not stated) | 3.03%
69 | COc1ccc(/C=C2/SC(=Nc3ccccc3)NC2=O)c(OC)c1 | 0%
70 | COCCNC(=S)N(Cc1ccc(F)cc1)Cc1cc2ccc(C)c(C)c2[nH]c1=O | 2.5%
71 | O=C1CN(C(=O)COC(=O)c2ccccc2NCCc2ccc(F)cc2)c2ccccc2N1 | 2.44%
72 | O=[N+]([O-])c1ccc(S(=O)(=O)N2CCN(C(=S)NCC3CCCO3)CC2)cc1 (configuration not stated) | 0%
73 | Cc1ccccc1N=c1oc2ccc3ccccc3c2cc1-c1nc2ccccc2[nH]1 | 0%
74 | CCOC(=O)c1cnc2ccc(OCC)cc2c1NCCN(CC)CC | 0%
75 | COC(=O)C1=C(C(=O)OC)SC(=C2C(=S)C(C)(C)N(C(=O)c3ccc([N+](=O)[O-])cc3)c3ccc(C)cc32)S1 | 0%

Row | SMILES | IFI
76 | CCOC(=O)C1=C(C)NC2=C(C(=O)CC(c3ccc(OC)c(OC)c3)C2)C1c1ccc([N+](=O)[O-])cc1 (configuration not stated) | 2.38%
77 | CCCCNC(=O)C(CC(C)C)N1C(=O)c2cc(NC(C)=O)ccc2NC(=O)[C@@H]1C (some centres not stated) | 2.47%
78 | CCCOc1ccc(C=Nc2ccc(S(=O)(=O)Nc3ccccn3)cc2)cc1 | 0%
79 | O=[N+]([O-])c1cccc(-c2ccc(C=NNc3nc4ccccc4[nH]3)o2)c1 | 0%
80 | Cc1cc(NS(=O)(=O)c2ccc(N=Cc3ccc(C#N)cc3)cc2)no1 | 7.69%
81 | Cc1ccc(CN2CCN(Cc3ccccc3)CC2)o1 | 0%
82 | S=C(NCc1ccco1)NC1CC2CCC(C1)N2Cc1ccccc1 (configuration not stated) | 1.24%
83 | COc1ccc(-n2c(SC)nc3sc4c(c3c2=O)CCN(Cc2ccccc2)C4)cc1 | 7.41%
84 | CN(Cc1cc(-c2ccccc2)ccc1O)CC(O)c1ccccc1 (configuration not stated) | 1%
85 | Cc1cc(Nc2ccc(OCc3ccccc3)cc2)nc2cc(O)ccc12 | 9.09%
86 | CCN(CC)c1nc(-c2cccnc2)nc2ccccc12 | 0.752%
87 | OCC(O)COc1cccc2ccccc12 (configuration not stated) | 0.775%
88 | CCCOc1ccc(C2Sc3ccccc3N=C3C2=C(O)c2ccccc23)cc1OC (configuration not stated) | 3.33%
89 | CN(C)C(=O)CN(C)C(=O)c1cnc2scc(C(C)(C)C)n2c1=O | 0%
90 | CCCOC(=O)C1=C(C)NC2=C(C(=O)CC(c3ccc(OC)c(OC)c3)C2)C1c1ccc(Br)cc1 (configuration not stated) | 4.88%
91 | O=C(Nn1c(SCc2cc(=O)n3ccccc3n2)nc2ccsc2c1=O)c1cccc(Br)c1 | 0%
92 | CN(C)c1ccc(/C=C/c2nc(=O)c3ccccc3o2)cc1 | 5.88%
93 | COc1cc(NC(C)CCCN(Cc2ccc(N(C)C)cc2)S(=O)(=O)c2cccc3ccccc23)c2ncccc2c1 (configuration not stated) | 3.7%
94 | COc1cc2c(cc1OC)C1Cc3ccc(OC)c(OC)c3CN1CC2 (configuration not stated) | 0.68%
95 | CCOC(=O)c1cccc(N2C(N)=NC(N)=NC2(C)C)c1 | 0%
96 | Nc1cccc(Oc2ccc3c(c2)C(=O)N(c2cccc(C(=O)O)c2)C3=O)c1 | 0%
97 | COc1ccc(-c2c[n+](CC(=O)c3ccccc3Cl)c3n2CCC3)cc1 | 2.5%
